For 82 compounds, TGI and GI50 results are on record in PubChem BioAssay (NCI).

“And” between values parts separate entries of the source, which are not always exact repeats. Identical values can stand only once.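 Briefly, cells in 96-well plates were exposed to five compound concentrations for 48 h, and endpoints were estimated by linear interpolation. Here, GI50 denotes the concentration required for 50% inhibition of growth. The concentration for full growth arrest is given as TGI.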

This assay relates to NCI-H322M lung. The assay can be described thus: NCI anticancer screen, dose series, 48 h.
With `Cc1ccc(S(=O)(=O)NCCSCCNS(=O)(=O)c2ccc(C)cc2)cc1`, the TGI is above 100 µM.
As to `CC1C(c2ccccc2)OP(=O)(OC(C#N)c2ccccc2)N1C` (stereo not drawn), the TGI is above 100 µM.
On the same count and under the same terms, in the case of `C=C1CC2OC2(C(=O)O[C@H]2CCC3[C@@H]4CCC5=CC(=O)CC[C@]5(C)C4CC[C@@]32C)C1=O` (stereo partly drawn) it was 34.2 µM.
As for `Cc1ccc(C(=O)Nc2cccc(C(F)(F)F)c2)cc1Nc1nc(-c2cccnc2)nc2c1cnn2C`, the GI50 is 3.95 µM and 2.38 µM; the TGI is 23.9 µM and > 10 µM.
For `C=C1COC(/C=C(\C)CC/C=C(\C)CCl)C1` (stereo not drawn), the TGI was above 100 µM.
As for `C/C(=N\Nc1ccc2ccccc2n1)c1ccccn1`, the GI50 is below 0.0498 µM and the TGI amounted to 6.91 µM.
Taken in the same sequence, the figures for `O=C(NN1C(=O)CSC12CCCCC2)c1[nH]c2ccc(F)cc2c1-c1ccccc1` were 26.5 µM and 68.7 µM.
The compound `O=C(O[C@H]1[C@@H](O)[C@H](n2cnc3c(Cl)ncnc32)O[C@@H]1COC(c1ccccc1)(c1ccccc1)c1ccccc1)c1ccccc1` returned a TGI of 29.8 µM.
Turning to `Brc1cccc(C2SCc3nc4ccccc4n32)c1` (stereo not drawn), the TGI was above 100 µM.
With `CCC1CN2CCc3cc(OC)c(OC)cc3C2CC1CC1c2cc(OC)c(OC)cc2CCN1C(=O)C1CCCN1C(=O)OCc1ccccc1` (stereo not drawn), the TGI is 51.4 µM.
As for `O=S(=O)(Sc1ccc(Cl)cc1)c1ccc(Cl)cc1`, the TGI was determined as 91.5 µM.
For `O=C1c2ccccc2-c2c1c1ccc([N+](=O)[O-])cc1c(=O)n2CCCBr`, the GI50 was above 100 µM and the TGI was above 100 µM.
`O=C(Cn1c2c(c3ccccc31)CCCC2)NC1CCCCC1` returned a TGI above 100 µM.
Regarding `CN(C)c1ccc(C=C2C(=O)OC(C)(C)OC2=O)cc1Br`, the TGI is above 100 µM.
As to `CCOC(=O)c1oc2ccc(OC)c3c2c1CCC3`, the TGI was above 100 µM.
`CCO[C@]12C[C@H](OC)[C@@]3(O)CC(C1[C@H]3OCc1ccccc1)C13C4C2[C@H](OC)C1[C@](COC)(CN4CC)[C@H](O)C[C@@H]3OC` (stereo partly drawn) displayed a TGI above 100 µM.
Consider `C[C@@H]1CC[C@H]2C(COCCOCC3=C(C(F)(F)F)O[C@@H]4O[C@@]5(C)CC[C@H]6[C@H](C)CC[C@@H]3[C@@]46OO5)=C(C(F)(F)F)O[C@@H]3O[C@@]4(C)CC[C@@H]1[C@]32OO4`, for which the GI50 is above 90.8 µM and the TGI was above 100 µM.
The matching figures for `Cc1cc(N/N=C/c2nc(-c3ccc(Br)cc3)oc2C)c2cc(Cl)ccc2n1`: above 100 µM and above 100 µM.
`CC(=O)OC1C(O)COC(O[C@H]2CC[C@]34C[C@]35CC[C@]3(C)C([C@@]6(C)CC[C@@H](C(C)(C)O)O6)[C@@H](O)C[C@@]3(C)C5C[C@H](OC3OCC(O)C(O)C3O)[C@H]4C2(C)C)C1OC1OCC(O)C(O)C1O` (stereo partly drawn) registered a TGI above 100 µM.
Take `COc1cc(/C=C2/CCS(=O)(=O)c3ccc(C)cc3C2=O)cc(OC)c1OC`: the TGI was determined as 11.6 µM.
In turn, `COc1ccc(NC2Oc3cc4c(cc3C(c3cccc(OC)c3OC)C2C)OCO4)cc1` (stereo not drawn) registered a TGI above 100 µM.
`O=C1C2CC=CCC2C(=O)N1n1c(-c2ccccc2)n[nH]c1=O` (stereo not drawn) gave a TGI above 100 µM.
On to `COC(=O)c1ccc2c(O)c(O)ccc2c1`, for which the TGI was found to be 30.9 µM.
Same read-out and setting: the figure for `CCCCCCCCCCCCCCCCCC(=O)OCC(COC1OC(COP(=O)(O)O)C(O)C(O)C1O)OC(=O)CCCCCCCCCCCCCCCCC` (stereo not drawn) is 14.4 µM.
`COc1cccc(NC(=O)c2sc3nc4c(cc3c2N)CN(Cc2ccccc2)CC4)c1`: the GI50 is 25.2 µM and the TGI was above 100 µM.
`CCCCCCNC(=O)c1cnc(Cl)cn1` returned a TGI of 13.6 µM.
With `Cc1ccc(C(=O)Nc2ccc(CN3CCN(C)CC3)c(C(F)(F)F)c2)cc1C#Cc1cnc2cccnn12`, the GI50 was 0.496 µM and 0.978 µM; the TGI is 1.99 µM and 3.91 µM.
`COC(=O)C1C(OC(=O)c2ccccc2)CC2CCC1N2C(N)=O` (stereo not drawn) had a TGI above 100 µM.
Take `CCCn1c(C)nc2c1C(=O)c1ccccc1C2=O`: the GI50 is 22.3 µM and the TGI was determined as 69.7 µM.
For `NC(=O)NN=C(CS)CS`, the TGI amounted to 29.7 µM.
Consider `COc1cc2c(cc1OC(=O)CC(C)O)C1C(OC2=O)C(OC(C)=O)C=C2CCN(C)[C@H]21` (stereo partly drawn), for which the TGI is above 100 µM.
Compound `CCOC(=O)c1sc2c(c1OC(=O)c1cccs1)c(=O)n(-c1ccccc1)c(=S)n2-c1ccccc1` returned a TGI of 88 µM.
`O=C1OC(CCCl)(c2ccccc2)CC1CN1CCOCC1` (stereo not drawn) registered a TGI above 100 µM.
Consider `Cc1c(C#N)c(=O)[nH]c(=O)n1CCN1CCN(C(=O)NCCCCCCNC(=O)N2CCN(CCn3c(C)c(C#N)c(=O)[nH]c3=O)CC2)CC1`, for which the TGI was above 100 µM.
On the same count and under the same terms, in the case of `C=Cc1c(C)c(OC)cc2c1Oc1ccc(OC)c(C)c1CC2` it was above 100 µM.
`COc1ccc(C2CC(c3cc(OC)c(OC)c(OC)c3)=NN2C(C)=O)cc1OCC(=O)Nc1nc2ccc(C(F)(F)F)cc2s1` (stereo not drawn): the GI50 is 3.67 µM and the TGI was above 100 µM.
In turn, `CCC1C(c2cc(OC)c(OC)c(OC)c2)c2cc3c(cc2OC1N1CCCC1)OCO3` (stereo not drawn) returned a TGI of 20.2 µM.
The compound `CCCCNCC(=O)O[C@]1(CC)C(=O)OCc2c1cc1n(c2=O)Cc2cc3ccccc3nc2-1` showed a TGI of 5.62 µM.
On the same count and under the same terms, in the case of `O=c1oc2ccccc2c(Nc2ccc3c(c2)S(=O)(=O)c2ccccc2O3)c1[N+](=O)[O-]` it was above 100 µM; in that of `N#CC(C(=O)CCC(=O)Nc1cccc(Cl)c1)c1ccccc1` (stereo not drawn), above 100 µM; in that of `CCCN(C(=O)c1c(Cl)nnc(Cl)c1C(=O)c1cc(Cl)nnc1Cl)c1cc(Cl)nnc1Cl`, 27.4 µM.
In the case of `C[C@]12CC[C@H]3[C@@H](CCC4=CC(=O)CC[C@@H]43)[C@@H]1CC[C@@H]2OC(=O)CCc1ccccc1`, the GI50 is 19.3 µM and the TGI stood at 46.1 µM.
Take `O=C(C1CCCCC1)[C@@H]1[C@]2(C(=O)NC3CCCCC32)[C@@H]2CCCN2[C@@]12C(=O)NC1CCC(Cl)CC12` (stereo partly drawn): the GI50 was 130 µM and the TGI was determined as 258 µM.
Turning to `O=C(NNC1=NCCN1)c1ccco1`, the TGI is above 100 µM.
Same read-out and setting: the figure for `CN(C)c1nc(=Nc2ccc3ccccc3c2)ss1` is above 100 µM.
On the same count and under the same terms, the figure for `CC12Nc3ccccc3N1C(=O)c1ccccc12` (stereo not drawn) is above 100 µM.
Take `COC(=O)C(Cc1ccccc1)NC(=O)NC(=O)NC(=O)CI` (stereo not drawn): the GI50 was 21.2 µM and the TGI stood at 47.1 µM.
As to `Cc1ccc(-c2nc3ccc(Cl)cc3[nH]2)cc1`, the TGI was above 100 µM.
Take `COC(=O)Cn1c2c(c3c(O)cccc31)C(=O)c1ccccc1-2`: the GI50 is above 100 µM and the TGI was above 100 µM.
As to `CCOC(=O)/C(C(=S)Nc1ccccc1)=C(/N)N1CCCC1`, the TGI was above 100 µM.
With `C=CC(=O)N1CCN(c2ccc3cccc(NC(=O)c4cnc(C)cn4)c3n2)CC1`, the GI50 was 1.97 µM and the TGI worked out at 76.3 µM.
Taken in the same sequence, the figures for `COc1cc2nc(N3CCCC3)nc(NCC3CCCCC3)c2cc1OC` were 1.61 µM and 3 µM.
`COC(=O)C1CCC(=O)N1CN(C(C)=O)c1ccccc1` (stereo not drawn) gave a TGI above 100 µM.
In the case of `O=C(CN1CCNCCN(CC(=O)N2CCCCC2)CCNCC1)N1CCCCC1`, the TGI is above 100 µM.
`CSc1nc(N)c(NC2OC(CO)C(O)C2O)c(=O)[nH]1` (stereo not drawn) came in with a TGI above 100 µM.
The same measure, in the same setting: the figure for `CN(C)CCCNC(=O)N/N=C/c1cccc([N+](=O)[O-])c1` is above 100 µM; for `O=C1C(=O)N(c2ccc(Cl)c(Cl)c2)C(=O)C(=O)C1c1nc2ccccc2s1` it is above 100 µM.
As for `Cc1cc(NCc2cc(Nc3ccnc4cc(Cl)ccc34)ccc2F)nc(N2CCCC2)n1`, the GI50 is 1.54 µM and the TGI was determined as 4.41 µM.
Consider `c1ccc(SC(CCCCC(Sc2ccccc2)Sc2ccccc2)Sc2ccccc2)cc1`, for which the TGI is above 100 µM.
As to `Nc1ncnc2[nH]ncc12`, the GI50 is 0.221 µM and the TGI is 0.761 µM.
With `COC(=O)[C@@H]1CN(C(=O)CCc2ccccc2)C(=O)N1C(=O)OCc1ccccc1`, the TGI was above 100 µM.
The same measure, in the same setting: the figure for `CC1=C2C(=O)c3ccccc3C(=O)[C@H]2[C@H]2CCO[C@H]2O1` is above 100 µM.
Turning to `O=C(c1ccccc1)C(CN1CCOCC1)c1ccccc1` (stereo not drawn), the GI50 is 12.6 µM and the TGI was found to be 30.9 µM.
In the case of `COC(=O)C1CC2(CCC1=O)Cc1ccccc1C2=O` (stereo not drawn), the TGI is above 100 µM.
For the compound `O=c1ccc2cc(O)c(O)cc2o1`, the TGI is above 100 µM.
The same measure, in the same setting: the figure for `C=CCOC(=O)/C(=C\c1ccc(OC)c(OC)c1)c1ccc(OC)c(OC)c1` is above 100 µM.
Turning to `Cc1ccc(NC(=O)/C=C/c2ccccc2)c(C(N)=O)c1`, the GI50 was 20 µM and the TGI is above 100 µM.
`CCOC(=O)c1nc2ccc([N+](=O)[O-])cc2c2c1CCO2`: the TGI is above 100 µM.
Same read-out and setting: the figure for `CC1(CCC2C=CCC2)CCCNC1=S` (stereo not drawn) is above 10 µM.
Consider `COc1cc2c(c(OC)c1OC)-c1ncc3cc(OC)c(OC)c(OC)c3c1C2`, for which the GI50 was 18.4 µM and the TGI amounted to 63.8 µM.
For `CC(C)CC(CC1=CCC2CC1C2(C)C)C1=C(O)C(C)(C)C(=O)C(C)(C)C1=O` (stereo not drawn), the GI50 is 0.317 µM and the TGI was above 100 µM.
Take `CC12CCC(C(=O)OC1=O)C(C)(C)O2` (stereo not drawn): the TGI is above 100 µM.
`CCOC(=O)c1c(N2CCCC2)nsc1Nc1ccccc1` displayed a TGI above 100 µM.
With `C=CC(=O)N(C)[C@H]1C[C@H]2OC(C)(C1OC)n1c3ccccc3c3c4c(c5c6ccccc6n2c5c31)C(=O)NC4` (stereo partly drawn), the GI50 is 0.191 µM and the TGI turned out to be 2.54 µM.
`O=C(NCc1cccnc1)NCc1cccnc1` had a TGI above 100 µM.
On to `CN(C)c1ccc2c(c1)Sc1cc(N(C)C)ccc1N2C(=O)c1ccccc1`, for which the GI50 is 30.5 µM and the TGI was above 100 µM.
Taken in the same sequence, the figures for `CN1CCN(Cc2ccc(NC(=O)c3cncc(C#Cc4cnc(N)c5ccncc45)c3)cc2C(F)(F)F)CC1` were 0.631 µM and 6.5 µM.
Consider `CC(=O)OCC(OC(C)=O)C(OC(C)=O)C(C=NN(C(C)=O)S(=O)(=O)c1ccc(/C=C2\NC(=O)NC2=O)cc1)OC(C)=O` (stereo not drawn), for which the TGI was above 100 µM.
Turning to `C#CCOCC12C=CC(O1)C1C(=O)N(C)C(=O)C12` (stereo not drawn), the TGI was above 100 µM.
As to `CC(CN1CCN(CCOCCO)CC1)CN1c2ccccc2Sc2ccc(Cl)cc21` (stereo not drawn), the GI50 was 3.71 µM and the TGI was determined as 14.4 µM.
On to `Cc1cc(=O)[nH]c(NN2C(Cl)C(=O)C2c2ccc(Cl)cc2)n1` (stereo not drawn), for which the TGI is 50.6 µM.
For `O=C(c1ccccc1)c1ccc(COc2ccc(C(c3c(O)c4ccccc4oc3=O)c3c(O)c4ccccc4oc3=O)cc2)cc1`, the TGI came to 34.2 µM.
